Reference: PubChem BioAssay AID624417 (National Center for Advancing Translational Sciences (NCATS), 2012)
Among all 410,000 compounds or so, about 6,400 (1.6%) were called active. Inconclusive means that the source gave no clear call. Such entries were picked first, then a sample of the others. The call rests on the fitted dose curve; in most records, active means well fitted inhibition curve with a large enough effect; inconclusive means small, poorly fitted or top-dose-only effect; inactive means no such curve, though single readings can be large or run the other way. Potencies of inconclusive entries are doubtful fits and often do not repeat.

Biological target: Glucagon-like peptide 1 receptor (Homo sapiens) (UniProt P43220)
Chain of UniProt P43220 (P43220 whole entry, looked up): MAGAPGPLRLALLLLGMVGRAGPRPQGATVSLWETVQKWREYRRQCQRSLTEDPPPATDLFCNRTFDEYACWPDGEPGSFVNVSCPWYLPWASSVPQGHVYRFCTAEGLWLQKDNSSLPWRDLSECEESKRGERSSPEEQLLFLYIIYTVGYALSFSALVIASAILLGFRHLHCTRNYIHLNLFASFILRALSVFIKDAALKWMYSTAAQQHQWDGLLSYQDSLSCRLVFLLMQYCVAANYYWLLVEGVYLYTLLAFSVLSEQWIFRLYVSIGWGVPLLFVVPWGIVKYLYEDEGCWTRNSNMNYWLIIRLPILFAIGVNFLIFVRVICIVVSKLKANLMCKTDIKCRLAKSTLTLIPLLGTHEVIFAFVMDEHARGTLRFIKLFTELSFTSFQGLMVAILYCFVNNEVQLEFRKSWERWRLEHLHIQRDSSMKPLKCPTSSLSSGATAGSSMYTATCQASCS
Assay: qHTS of GLP-1 Receptor Inverse Agonists (Inhibition Mode); further: nearly all actives have a fitted effect of over 55% in size
Conditions: HEK293 GLP-1R CRE-luciferase, luminescence, 24 h, GLP-1R form is constitutively active; activity change, negative = inhibition: at 38.3 µM (top of the series) unless noted
Procedure, shortened: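 Readout was luciferase luminescence, measured 12 min after detection reagent at room temperature. Beforehand, GLP-1R reporter HEK293 cells had sat 12 h, then received compounds for 24 hr at 37 deg C.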
On the % scale 0 is the no-effect control and ±100 the full control effect; potency means the concentration at half of the fitted maximal effect; tags describe the fitted curve by direction and shape.

SMILES	activity change, negative = inhibition	Potency
O=C(Nc1ncccn1)C1=C(O)c2ccccc2S(=O)(=O)N1Cc1ccccc1	inactive: 10.4%	
CCOc1ccc(C(=O)OCC(=O)Nc2cccc(S(=O)(=O)N3CCCC3)c2)cc1		inconclusive: 14.1 µM [inhibitor, partial curve, poor fit]
Cc1ccccc1OC(C)C(=O)Nc1ccc(S(=O)(=O)N2CCCC2)cc1 (stereo not given)		inconclusive: 7.94 µM [inhibitor, partial curve, poor fit]
O=S(=O)(Nc1ccc(C(O)(C(F)(F)F)C(F)(F)F)cc1)c1ccc(Cl)c2nonc12		inconclusive: 12.6 µM [inhibitor, single point]
COc1ccc(CNC(=O)C2CCN(C(=O)N3CCOc4ccc(Cl)cc43)CC2)cc1	inactive: -23.8%	
Cc1ccc(Nc2nc(N)c3ccccc3n2)cc1C		active: 7.08 µM
COc1ccccc1-c1nnc(SC(C(=O)c2c[nH]c3ccccc23)c2ccccc2)n1C (stereo not given)		inconclusive: 11.2 µM [inhibitor, partial curve, poor fit]
Cc1ccc(C(C(=O)NC2CCCCC2)N2CCCC2)cc1 (stereo not given)		inconclusive: 28.2 µM [inhibitor, single point]
COc1ccc(S(=O)(=O)N2CCOCC2)cc1NC(=O)CCOc1ccc(C(C)(C)C)cc1		inconclusive: 11.2 µM [inhibitor, partial curve]
O=C(Nc1cccc2ccccc12)N1N=CCC1c1ccccc1 (stereo not given)		inconclusive: 10 µM [inhibitor, single point]
CCOC(=O)N/N=C/c1cc(C)n(-c2cccc3ccccc23)c1C		inconclusive: 28.2 µM [inhibitor, single point]
Cc1ccccc1Cn1c2ccccc2c2cnn(CC(=O)NCCCN3CCN(C)CC3)c(=O)c21		inconclusive: 28.2 µM [inhibitor, single point]
Cc1ccc2[nH]c(=O)c(CN(CCc3ccccc3)C(c3nnnn3Cc3ccco3)C(C)C)cc2c1 (stereo not given)		inconclusive: 10 µM [inhibitor, single point]
Cc1ccc(S(=O)(=O)N(C)c2ccc(C(=O)NCc3ccccc3F)cc2)cc1		inconclusive: 12.6 µM [inhibitor, single point]
Cc1ccnc2nc(C(=O)OCC(=O)Nc3ccc([N+](=O)[O-])cc3Br)nn12	inactive: -0.577%	
COc1cccc2cc(C(=O)Nc3cc(C)cc(C)c3)/c(=N/NS(=O)(=O)c3ccccc3)oc12	inactive: 20.4%	
COc1c(C)cc(NS(=O)(=O)c2ccc3c(c2)OCCO3)cc1C		inconclusive: 2.82 µM [inhibitor, partial curve, poor fit]
CC1(C(=O)NS(=O)(=O)c2ccc(F)cc2F)CCN1C(=O)c1ccccc1CCc1ccccc1 (stereo not given)		inconclusive: 20 µM [inhibitor, single point]
O=C(CN1C(=O)C2(SCC(=O)N2c2ccc(F)c(F)c2)c2ccccc21)Nc1cccc(Cl)c1 (stereo not given)		inconclusive: 28.2 µM [inhibitor, single point]
CCn1c(COc2c(C)cccc2C)nnc1SCc1nc2ccccc2c(=O)[nH]1		inconclusive: 28.2 µM [inhibitor, single point]

SMILES	activity change, negative = inhibition	Potency
Cc1ccc(S(=O)(=O)N2CCCC2CNC(=O)C(=O)NCc2ccc3c(c2)OCO3)cc1 (stereo not given)		inconclusive: 6.31 µM [inhibitor, partial curve, poor fit]
Nc1nc(N)c2cc(Sc3cccc(C(F)(F)F)c3)ccc2n1		inconclusive: 11.2 µM [inhibitor, partial curve, poor fit]
S=C(Nc1ccc(-c2nc3ccccc3[nH]2)cc1)Nc1cccnc1		inconclusive: 28.2 µM [inhibitor, single point]
COc1ccc(CCNC(=O)C2c3ccccc3C(=O)N2Cc2ccccc2)cc1OC (stereo not given)	inactive: -20.5%	
CCCC(C)(C)C(=O)N1CCC1(C)C(=O)Nc1ccc2c(c1)OCCO2 (stereo not given)		inconclusive: 12.6 µM [inhibitor, single point]
O=C(NCc1nc2ccccc2[nH]1)C1=C[C@@H](c2ccccc2)C[C@@H](OCCCCO)O1	inactive: 9.87%	
COC(=O)N/N=C/c1cn(CCCOc2ccccc2)c2ccccc12		active: 10 µM
Cc1c(CCCN)c2ccccc2n1Cc1ccccc1		inconclusive: 10 µM [inhibitor, partial curve, poor fit]
CC(C)(C)c1ccc(NC(=O)N2CCCN(c3ccc([N+](=O)[O-])cn3)CC2)cc1		inconclusive: 12.6 µM [inhibitor, partial curve, poor fit]
COc1ccc(Cl)cc1C(=O)NCCS(=O)(=O)N1CCN(c2ccccc2OC)CC1		inconclusive: 28.2 µM [inhibitor, single point]
Cn1c2ccccc2c(=O)c2cc(C#CC3(O)CCCCC3)ccc21		active: 1 µM
CC(C)N1CCN(CCCc2ccccc2)CC1CCO (stereo not given)	inactive: -12.9%	
COc1ccc(-n2cc(-c3ccccc3)c3c(N4CC(C)OC(C)C4)ncnc32)cc1 (stereo not given)	inconclusive: -73.7% [inhibitor] [at 7.66 µM]	
CCOc1ccccc1CNC(=O)c1oc2c(c1C)-c1nn(Cc3cccc(Cl)c3)cc1CC2		inconclusive: 11.2 µM [inhibitor, partial curve, poor fit]
CC12COC3(C(=O)Nc4ccc5ccccc5c4)CC1CCC32C (stereo not given)		inconclusive: 5.62 µM [inhibitor, full curve, poor fit]
COc1ccc(C(=O)N(Cc2ccccc2)c2cccc(C)c2)c(OC)c1OC		inconclusive: 28.2 µM [inhibitor, single point]
Cc1cccc(C(=O)NCc2nc3ccccc3n2Cc2ccccc2Cl)c1		inconclusive: 10 µM [inhibitor, partial curve, poor fit]
O=C(Cc1ccccc1)N/N=C/c1cc(Br)cc(Cl)c1O		inconclusive: 5.01 µM [inhibitor, full curve]
Nc1ccc(-c2cnc(N)c(C(=O)c3cccnc3)n2)cn1		inconclusive: 2.24 µM [inhibitor, full curve, poor fit]
COc1ccccc1Nc1ccc(NC(=O)c2cccc([N+](=O)[O-])c2C)cc1		inconclusive: 1.12 µM [inhibitor, full curve, poor fit]
